Laboratory results as given in the antibiotic and cytotoxicity screens of Wong et al. (2023).
The list shows a part of the results.

How the values were obtained:
[1] = test system: HSkMC (human skeletal muscle cells); experiment: cytotoxicity call (relative viability < 0.9); settings: 10 µM
[2] = test system: S. aureus RN4220; experiment: growth inhibition call (relative growth <= 0.2); settings: 50 µM

## C[C@@H]1CN([C@H](C)CO)C(=O)c2cc(NC(=O)Nc3cccc4ccccc34)ccc2O[C@@H]1CN(C)Cc1ccc(Cl)c(Cl)c1
[1]
  cytotoxicity call: inactive
[2]
  growth inhibition call: inactive

## C[C@H]1CN([C@@H](C)CO)C(=O)c2cccc(NC(=O)C3CC3)c2O[C@@H]1CN(C)C(=O)NC1CCCCC1
[1]
  cytotoxicity call: inactive
[2]
  growth inhibition call: inactive

## Cc1cc(C(=O)Nc2cccc3c2O[C@@H](CN(C)C(=O)Nc2ccc4c(c2)OCO4)[C@H](C)CN([C@@H](C)CO)C3=O)n(C)n1
[1]
  cytotoxicity call: inactive
[2]
  growth inhibition call: inactive

## C[C@H](CO)N1C[C@H](C)[C@@H](CN(C)Cc2ccc(Cl)c(Cl)c2)Oc2ccc(NC(=O)Cn3cnnn3)cc2CC1=O
[1]
  cytotoxicity call: inactive
[2]
  growth inhibition call: inactive

## COc1cc(OC)c([C@@H]2c3c(n(C)c(=O)n(C)c3=O)N=C3COC(=O)C32)cc1OC (some centres undefined)
[1]
  cytotoxicity call: inactive
[2]
  growth inhibition call: inactive

## C=CCNC(=O)[C@H]1[C@@H]2C(=O)O[C@@H](c3ccccc3)[C@@H](c3ccccc3)N2[C@@H](c2ccc(OCCO)cc2)[C@]12C(=O)N(C(=O)OCCOC)c1ccc(C#CC3(O)CCCCCC3)cc12
[1]
  cytotoxicity call: inactive
[2]
  growth inhibition call: inactive

## Cc1ccc(S(=O)(=O)N(C)C[C@@H]2Oc3c(NS(=O)(=O)c4cccs4)cccc3C(=O)N([C@@H](C)CO)C[C@H]2C)cc1
[1]
  cytotoxicity call: inactive
[2]
  growth inhibition call: inactive
